About 75 (2%) of roughly 3,200 compounds showed an effect of 50% or more. The list shows a part of the results.
These compounds were tested on T1, S. aureus MSSA476. Settings: relative growth, OD600, TSB; 25 µM; inhibitor.
T1 construct: MSSA476
Design: species or system S. aureus MSSA476 (TSB) or V. cholerae SAD30 (LB); 384-well bacterial growth screen at 25 uM, OD600 relative to DMSO control

Going from `C=CC(=O)N1CCC(C(=O)N[C@H]2CCO[C@@H]2c2cccnc2)CC1` (racemic) [2-G20, rac-1-(prop-2-enoyl)-N-[(2R,3S)-2-(pyridin-3-yl)oxolan-3-yl]piperidine-4-carboxamide] to `O=C(CCl)NCC1CCN(C(=O)c2ccccc2)CC1` [7-L06, N-[(1-benzoylpiperidin-4-yl)methyl]-2-chloroacetamide], the “% of control remaining” value falls from 108.268% to 77.865%.

Compared with `C=CC(=O)Nc1cc(-c2ccco2)nn1C(C)(C)C` [1-K19, N-[1-tert-butyl-3-(furan-2-yl)-1H-pyrazol-5-yl]prop-2-enamide], `C=CC(=O)Nc1nc(Cc2ccccc2)c(C)s1` [1-B16, N-(4-benzyl-5-methyl-1,3-thiazol-2-yl)prop-2-enamide] is lower in “% of control remaining” value: 129.407% for the first, 124.835% for the second.

First: N#CC(=Cc1cc2c(cc1[N+](=O)[O-])OCO2)C(=O)NC1CCCCC1 [8-F22, 2-cyano-N-cyclohexyl-3-(6-nitro-1,3-dioxaindan-5-yl)prop-2-enamide]
Second: C=CC(=O)NCc1cc(Cl)c2c(c1)OCO2 [2-F15, N-[(7-chloro-1,3-dioxaindan-5-yl)methyl]prop-2-enamide]
The “% of control remaining” value of the first is lower: 96.9295% for the first, 114.534% for the second.

First: N#CC(=Cc1ccco1)C(=O)Nc1cccc2ncccc12 [8-B20, 2-cyano-3-(furan-2-yl)-N-(quinolin-5-yl)prop-2-enamide]
Second: N#CC(=Cc1ccccc1O)C(=O)Nc1cccc2ncccc12 [9-G04, 2-cyano-3-(2-hydroxyphenyl)-N-(quinolin-5-yl)prop-2-enamide]
The “% of control remaining” value of the first is lower: 84.6473% for the first, 94.382% for the second.

Compared with `CC(Cl)C(=O)N1CCn2c(cc3c(Cl)cccc32)C1` (stereo not shown) [7-D17, 2-chloro-1-{9-chloro-1H,2H,3H,4H-pyrazino[1,2-a]indol-2-yl}propan-1-one], `CC(Cl)C(=O)N1CCN(C(=O)Cc2cccc(Cl)c2)C(C)C1` (stereo not shown) [7-E20, 2-chloro-1-{4-[2-(3-chlorophenyl)acetyl]-3-methylpiperazin-1-yl}propan-1-one] is lower in “% of control remaining” value: 101.413% for the first, 99.843% for the second.

Compared with `N#CC(=Cc1cccs1)C(=O)Nc1cccc2ccccc12` [9-M22, 2-cyano-N-(naphthalen-1-yl)-3-(thiophen-2-yl)prop-2-enamide], `Cc1ccc(NC(=O)C(C#N)=Cc2ccsc2)c(C)c1` [9-M19, 2-cyano-N-(2,4-dimethylphenyl)-3-(thiophen-3-yl)prop-2-enamide] is lower in “% of control remaining” value: 109.363% for the first, 106.966% for the second.

First: Cc1cc(N(CCC#N)C(=O)CCl)ccc1Cl [4-K15, 2-chloro-N-(4-chloro-3-methylphenyl)-N-(2-cyanoethyl)acetamide]
Second: Cc1cccc(NC(=O)CCl)c1C [4-D04, 2-chloro-N-(2,3-dimethylphenyl)acetamide]
The “% of control remaining” value of the first is higher: 119.295% for the first, 89.5665% for the second.

First: COCc1noc(CN2CCN(C(=O)C(C)Cl)CC2)n1 (stereo not shown) [7-I06, 2-chloro-1-(4-{[3-(methoxymethyl)-1,2,4-oxadiazol-5-yl]methyl}piperazin-1-yl)propan-1-one]
Second: CC(Cl)C(=O)N1CCN(Cc2ccnn2C)CC1 (stereo not shown) [7-I22, 2-chloro-1-{4-[(1-methyl-1H-pyrazol-5-yl)methyl]piperazin-1-yl}propan-1-one]
The “% of control remaining” value of the first is higher: 111.774% for the first, 96.3893% for the second.

Going from `CC(Cl)C(=O)NCc1conc1C1CCC1` (stereo not shown) [5-L21, 2-chloro-N-[(3-cyclobutyl-1,2-oxazol-4-yl)methyl]propanamide] to `CC(Cl)C(=O)NCCNC(=O)c1ccoc1` (stereo not shown) [7-E21, 2-chloro-N-{2-[(furan-3-yl)formamido]ethyl}propanamide], the “% of control remaining” value falls from 115.847% to 108.32%.

Going from `C=CC(=O)NCCc1ccc(S(C)(=O)=O)cc1` [2-A14, N-[2-(4-methanesulfonylphenyl)ethyl]prop-2-enamide] to `C=CC(=O)NCCc1coc(-c2ccc(C)cc2)n1` [1-M06, N-{2-[2-(4-methylphenyl)-1,3-oxazol-4-yl]ethyl}prop-2-enamide], the “% of control remaining” value falls from 121.497% to 103.033%.

First: CC(Cl)C(=O)Nc1ccc(S(=O)(=O)N2CCCC2)cc1 (stereo not shown) [6-M13, 2-chloro-N-[4-(pyrrolidine-1-sulfonyl)phenyl]propanamide]
Second: CC(c1ccc(S(N)(=O)=O)cc1)N(C)C(=O)CCl (stereo not shown) [7-H12, 2-chloro-N-methyl-N-[1-(4-sulfamoylphenyl)ethyl]acetamide]
The “% of control remaining” value of the first is higher: 92.878% for the first, 76.2951% for the second.

First: CC(Cl)C(=O)NCCc1nnc(C(C)C)s1 (stereo not shown) [7-E03, 2-chloro-N-{2-[5-(propan-2-yl)-1,3,4-thiadiazol-2-yl]ethyl}propanamide]
Second: COCC(NC(=O)C(C)Cl)c1cccc(C#N)c1 (stereo not shown) [6-L19, 2-chloro-N-[1-(3-cyanophenyl)-2-methoxyethyl]propanamide]
The “% of control remaining” value of the first is lower: 86.9702% for the first, 110.634% for the second.

Compared with `C=CC(=O)NCc1nc(C(C)(C)O)n[nH]1` [2-E15, N-{[3-(2-hydroxypropan-2-yl)-1H-1,2,4-triazol-5-yl]methyl}prop-2-enamide], `C=CC(=O)NCC1CN(Cc2cccc(C)c2)CCO1` (stereo not shown) [3-A05, N-({4-[(3-methylphenyl)methyl]morpholin-2-yl}methyl)prop-2-enamide] is lower in “% of control remaining” value: 102.35% for the first, 87.4184% for the second.

`CC(Cl)C(=O)N1CCN(C(C)c2cccc(C#N)c2)CC1` (stereo not shown) [7-P22, 3-{1-[4-(2-chloropropanoyl)piperazin-1-yl]ethyl}benzonitrile] and `Cc1c(C(=O)N2CCN(C(=O)C(C)Cl)CC2)sc2ccccc12` (stereo not shown) [7-H09, 2-chloro-1-[4-(3-methyl-1-benzothiophene-2-carbonyl)piperazin-1-yl]propan-1-one] are the same in “% of control remaining” value: 115.542% for the first, 115.542% for the second.

Compared with `CNC(=O)C(F)(F)C1(O)CCN(C(=O)CCl)CC1` [5-F03, 2-[1-(2-chloroacetyl)-4-hydroxypiperidin-4-yl]-2,2-difluoro-N-methylacetamide], `Cn1ncc(C(=O)CCl)n1` [10-J10, 2-chloro-1-(2-methyl-2H-1,2,3-triazol-4-yl)ethan-1-one] is higher in “% of control remaining” value: 73.9526% for the first, 82.5% for the second.

Going from `COc1cc(NC(=O)CCl)cc(OC)c1` [4-G09, 2-chloro-N-(3,5-dimethoxyphenyl)acetamide] to `CCC(C)c1ccccc1NC(=O)CCl` (stereo not shown) [6-K11, N-[2-(butan-2-yl)phenyl]-2-chloroacetamide], the “% of control remaining” value falls from 119.295% to 101.415%.

Going from `N#CC(=Cc1ccco1)C(=O)NS(=O)(=O)c1cccc2cnccc12` [9-H20, 2-cyano-3-(furan-2-yl)-N-(isoquinoline-5-sulfonyl)prop-2-enamide] to `CCCNC(=O)C(C#N)=Cc1ccc(-n2cncn2)c(C)c1` [9-C05, 2-cyano-3-[3-methyl-4-(1H-1,2,4-triazol-1-yl)phenyl]-N-propylprop-2-enamide], the “% of control remaining” value rises from 76.1049% to 106.966%.

First: C=CC(=O)NC1CCCN(Cc2ccccc2)C1 (stereo not shown) [1-K12, N-(1-benzylpiperidin-3-yl)prop-2-enamide]
Second: O=C(CCl)NC1CCN(C(=O)c2ccco2)c2ccccc21 (stereo not shown) [5-O07, 2-chloro-N-[1-(furan-2-carbonyl)-1,2,3,4-tetrahydroquinolin-4-yl]acetamide]
The “% of control remaining” value of the first is higher: 116.396% for the first, 112.933% for the second.

Going from `CC(C)CN(C(=O)CCl)C1CCS(=O)(=O)C1` (stereo not shown) [4-D12, 2-chloro-N-(1,1-dioxo-1lambda6-thiolan-3-yl)-N-(2-methylpropyl)acetamide] to `C=CC(=O)N(Cc1cc(C)c2ncccc2c1)C(C)C1CCCO1` (stereo not shown) [1-P15, N-[(8-methylquinolin-6-yl)methyl]-N-[1-(oxolan-2-yl)ethyl]prop-2-enamide], the “% of control remaining” value falls from 97.9514% to 82.6374%.

First: C=CC(=O)N(C1CCCC1)C(C)c1nnc2ccccn12 (stereo not shown) [2-B07, N-cyclopentyl-N-(1-{[1,2,4]triazolo[4,3-a]pyridin-3-yl}ethyl)prop-2-enamide]
Second: C=CC(=O)NC(C)c1ccc2c(c1)CCC2 (stereo not shown) [3-F09, N-[1-(2,3-dihydro-1H-inden-5-yl)ethyl]prop-2-enamide]
The “% of control remaining” value of the first is higher: 120.801% for the first, 109.012% for the second.

Compared with `O=C(CCl)N(Cc1ccco1)C12CC3CC(CC(C3)C1)C2` [4-J18, N-(adamantan-1-yl)-2-chloro-N-[(furan-2-yl)methyl]acetamide], `CC(Cl)C(=O)N1CCOC(c2ccnc(N(C)C)n2)C1` (stereo not shown) [6-L05, 2-chloro-1-{2-[2-(dimethylamino)pyrimidin-4-yl]morpholin-4-yl}propan-1-one] is lower in “% of control remaining” value: 116.246% for the first, 76.1463% for the second.

Going from `O=C(CCl)c1ccc(F)cc1F` [10-I18, 2-chloro-1-(2,4-difluorophenyl)ethan-1-one] to `O=C(CCl)c1cc(Cl)sc1Cl` [10-D16, 2-chloro-1-(2,5-dichlorothiophen-3-yl)ethan-1-one], the “% of control remaining” value falls from 136.563% to 79.375%.

Compared with `O=C(CCl)NCCc1c[nH]c2c(F)c(F)c(F)cc12` [7-H16, 2-chloro-N-[2-(5,6,7-trifluoro-1H-indol-3-yl)ethyl]acetamide], `CC(Cl)C(=O)N1Cc2cnn(C)c2C1` (stereo not shown) [7-K09, 2-chloro-1-{1-methyl-1H,4H,5H,6H-pyrrolo[3,4-c]pyrazol-5-yl}propan-1-one] is higher in “% of control remaining” value: 86.3422% for the first, 97.6452% for the second.

Reference: paper PMC11995724, “Antibiotic target discovery by integrated phenotypic and activity-based profiling of electrophilic fragments” (Cell chemical biology, 2025)
